Source: PubChem BioAssay AID504832 (National Center for Advancing Translational Sciences (NCATS), 2011)
Several values for one entry are separate records, joined by “and”; a condition that tells them apart may be missing. Equal values may be shown once. About 18,000 (5.8%) of roughly 310,000 compounds were called active. The inconclusive results got no clear call from the source; some entries with a clear call stand among them for comparison. Calls come from the whole dose curve; as a rule, active = well fitted inhibition curve with a large enough effect; inconclusive = small, poorly fitted or top-dose-only effect, or another doubt; inactive = no such curve, though single readings can be large or run the other way. Potencies beside an inconclusive call are fits to weak or partial responses and may not hold up.

assay: Primary qHTS for delayed death inhibitors of the malarial parasite plastid, 48 hour incubation; details: P. falciparum luciferase growth in erythrocytes; series mostly up to 28.7 µM
Method in brief: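 Luciferase-expressing parasites in RBCs, 2% Hct / 0.1% parasitemia final; RPMI 1640 + 0.5% Albumax; 37 C, 5% CO2, one generation; luminescence read-out, lower signal = inhibition.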
Potency is the fitted concentration of half-maximal effect; tags give direction and shape of the fitted curve.

Row | SMILES | Potency
1 | COc1ccc(N(C2CSC2)S(=O)(=O)c2ccccc2)cc1 | inactive
2 | CSc1ccccc1C(=O)NCCc1ccc(S(=O)(=O)N2CCCCC2)cc1 | active: 5.22 µM
3 | CNC(=S)N1N=C(c2cccs2)CC1c1ccc(F)cc1 (stereo not given) | inconclusive: 18.5 µM [inhibitor, single point]
4 | Fc1ccc(N2N=C(c3cccs3)CC2c2ccccc2)cc1 (stereo not given) | active: 13.1 µM
5 | CN(C)CCCN(C(=O)c1ccc(S(=O)(=O)N2CCc3ccccc32)cc1)c1nc2c(Cl)cccc2s1 | inconclusive: 11.7 µM [inhibitor, single point]
6 | O=C(CCCNS(=O)(=O)c1cccc2nsnc12)NCCN1CCN(c2ccccc2F)CC1 | inconclusive: 18.5 µM [inhibitor, single point]
7 | Cc1sc2nc(CSc3nc4ccccc4s3)[nH]c(=O)c2c1C | inactive
8 | COc1ccccc1NC(=O)Cc1c(F)cccc1Cl | inconclusive: 11.7 µM [inhibitor, single point]
9 | COc1ccc(C(=O)C(CCCCC(CN(C)C)C(=O)c2ccc(OC)cc2)CN(C)C)cc1 (stereo not given) | active: 10.4 µM
10 | O=C1NC(=O)C2(CCCCCCCCCCC2)N1 | inactive
11 | CN1CCN(S(=O)(=O)c2ccc(Nc3ccc(F)cc3)c([N+](=O)[O-])c2)CC1 | inactive
12 | O=C1c2ccccc2C(=O)N1CCc1c[nH]c2ccc(O)cc12 | inactive
13 | O=C(NCc1cccs1)c1ccc(CS(=O)Cc2cccc(Cl)c2)o1 (stereo not given) | inconclusive: 2.08 µM [inhibitor, full curve, poor fit]
14 | COc1ccc(C2CCCN2C(=S)Nc2cccc(C)c2C)cc1OC (stereo not given) | active: 11.7 µM
15 | CC(C)C(C(=O)NCc1ccco1)N(Cc1ccco1)C(=O)CNS(=O)(=O)c1ccc(F)cc1 (stereo not given) | inconclusive: 18.5 µM [inhibitor, single point]
16 | CCC1Oc2ccc(C)cc2N(CC(=O)N(Cc2cccnc2)Cc2ccc(C)o2)C1=O (stereo not given) | active: 11.7 µM
17 | COc1ccccc1OCC(=O)Sc1ccc(C)cc1 | inactive
18 | O=C1NCCN1C(=O)c1ccco1 | inactive
19 | COc1ccccc1-c1c(C)nn2c(N)c(-c3ccc(Cl)cc3)cnc12 | inconclusive: 4.15 µM [inhibitor, single point]
20 | N#CCCN(C(=O)COC(=O)c1ccc(S(=O)(=O)N2CCCC2)cc1)c1cccc(Cl)c1 | inactive
21 | Nc1cc(C(F)(F)F)ccc1-n1cccc1 | inconclusive: 0.928 µM [inhibitor, partial curve, poor fit]
22 | CC1Cc2ccccc2N1S(=O)(=O)c1cccc(C(=O)OCC(=O)NCc2ccco2)c1 (stereo not given) | inconclusive: 0.329 µM [inhibitor, full curve]
23 | COc1cc(NC(=O)c2cccc(C)c2)c(OC)cc1NC(=O)CN1CCOCC1 | inconclusive: 14.7 µM [inhibitor, partial curve, poor fit]
24 | CC(C)c1nc(SCC(=O)Nc2nc3c(s2)CCCC3)c2ccccc2n1 | inconclusive: 11.7 µM [inhibitor, single point]

Row | SMILES | Potency
25 | CCCOc1ccc(NC(=O)C2CC(=O)N3CCCN=C3S2)cc1 (stereo not given) | inconclusive: 10.4 µM [inhibitor, single point]
26 | C=CCNC(=O)c1ccc(CN2CCC(Cc3ccccc3)CC2)cc1 | active: 10.4 µM
27 | Cc1cccc(C(=O)Nc2cc(S(=O)(=O)N3CCOCC3)ccc2N2CCCCC2)c1 | active: 7.38 µM
28 | CCOc1cc(C(=O)N/N=C/C(Br)=C/c2ccccc2)cc(OCC)c1OCC | inactive
29 | CCCCc1nc(NCC2CCCO2)c(C#N)c2c1COC(C)(C)C2 (stereo not given) | inconclusive: 11.7 µM [inhibitor, single point]
30 | COc1ccccc1Cc1nnc(NC(=O)C2CCN(C(=O)c3ccco3)CC2)s1 | inconclusive: 18.5 µM [inhibitor, single point]
31 | C/C(=N\NC(=O)c1ccoc1C)c1ccccc1O | inconclusive: 10.4 µM [inhibitor, partial curve]
32 | CCOC(=O)c1cc(NC(=O)c2ccco2)ccc1N1CCOCC1 | inactive
33 | Cc1cc(-c2cc(-c3ccc(Cl)cc3)on2)nc(NC2CCCC2)n1 | inconclusive: 16.5 µM [inhibitor, single point]
34 | O=C(Nc1ccc2c(c1)OCO2)c1cnc(Cl)c(Cl)c1 | inactive
35 | c1ccc2c(c1)nc1n2CCN1CCNC1CCCCC1 | inconclusive: 13.1 µM [inhibitor, single point]
36 | Cc1c(-c2ccc(Cl)cc2Cl)nc2ccccc2c1C(=O)NCCN1CCOCC1 | inconclusive: 10.4 µM [inhibitor, single point]
37 | COc1ccc(NS(=O)(=O)c2ccc(N3CCOCC3)c(NC(=O)c3ccccc3Br)c2)cc1 | inconclusive: 13.1 µM [inhibitor, partial curve, poor fit]
38 | NCC(O)CN1CCN(Cc2ccccc2)CC1 (stereo not given) | inactive
39 | COc1cc(CC(=O)OCC(=O)Nc2ccc3c(c2)OCCO3)cc(OC)c1OC | inconclusive: 0.37 µM [inhibitor, partial curve, poor fit]
40 | Cc1cc(N2CCN(c3ncccn3)CC2)nc2c(C)cccc12 | inconclusive: 10.4 µM [inhibitor, partial curve]
41 | N=c1c(S(=O)(=O)c2ccc(Br)cc2)cc2c(=O)n3ccccc3nc2n1C1CCCC1 | active: 10.4 µM
42 | CCN(CC1CCCO1)C(=O)c1cc(COc2ccccc2SC)on1 (stereo not given) | inconclusive: 5.86 µM [inhibitor, single point]
43 | Cc1cc(S(=O)(=O)Nc2ccc(C(=O)NCC(c3ccco3)N3CCCCC3)cc2)ccc1F (stereo not given) | inconclusive: 18.5 µM [inhibitor, single point]
44 | Cc1cccc(-n2nnnc2SCC(=O)NCC2(N3CCOCC3)CCCCC2)c1C | active: 11.7 µM
45 | C#CCn1c(=NC(=O)CSC(C)=O)sc2cc(F)ccc21 | inconclusive: 8.28 µM [inhibitor, partial curve]
46 | CCN(C(=O)Cc1cccs1)c1nnc(-c2cc(OC)c(OC)c(OC)c2)s1 | active: 5.22 µM
47 | COc1cccc(NS(=O)(=O)c2ccc3[nH]cc(C(=O)NCCc4ccc(C)cc4)c(=O)c3c2)c1 | inconclusive: 11.7 µM [inhibitor, single point]
48 | CCOc1ccc(S(=O)(=O)N(CC)CC(=O)N2CCCC2)cc1 | inactive

Row | SMILES | Potency
49 | CCn1cc(C(=O)NCc2ccco2)c2cc(OC)c(OC)cc2c1=O | inactive
50 | CCN(CC)S(=O)(=O)c1ccc2nnn(OCC(=O)Nc3cccc(C#N)c3)c2c1 | inconclusive: 18.5 µM [inhibitor, single point]
51 | COc1ccc(N(CC(=O)Nc2cc(C)ccc2OC)S(=O)(=O)c2c(C)noc2C)cc1 | inconclusive: 10.4 µM [inhibitor, single point]
52 | COc1ccc(-c2coc3c(CN4CCCCC4C)c(O)ccc3c2=O)cc1 (stereo not given) | inconclusive: 13.1 µM [inhibitor, single point]
53 | C=CCNC(=O)C1CCN(c2cc(C)nc(-c3ccccc3)n2)CC1 | inconclusive: 14.7 µM [inhibitor, single point]
54 | Nc1nc(SCC(=O)Nc2ccc(Cl)cc2C(F)(F)F)n[nH]1 | inactive
55 | N#CC1=C(N)Oc2c(oc(CO)cc2=O)C12C(=O)Nc1ccc(Cl)cc12 (stereo not given) | inactive
56 | COc1ccc(N(CC(=O)Nc2ccc(F)cc2F)S(=O)(=O)c2c(C)nn(C)c2C)cc1 | inconclusive: 0.0928 µM [inhibitor, full curve, poor fit]
57 | C[c-]1[c-](C)[c-](C)[c-](C)[c-]1C.[Fe].c1cc2nccc(N3CCCC3)[c-]2c1 (stereo not given) | inconclusive: 14.7 µM [inhibitor, single point] and inconclusive: 10.4 µM [inhibitor, single point]
58 | Cc1ccccc1CC1(CO)CCCN(Cc2c(C)nn(C)c2Cl)C1 (stereo not given) | inconclusive: 18.5 µM [inhibitor, single point]
59 | O=C(COCc1cc(-c2ccc3c(c2)OCO3)on1)N1CCN(c2cccc(C(F)(F)F)c2)CC1 | inconclusive: 2.33 µM [inhibitor, single point]
60 | CCOC(=O)N1CCN(C(=O)c2oc3ccc(S(=O)(=O)N(CC)CC)cc3c2C)CC1 | active: 5.22 µM
61 | Cc1cccc(C(=O)Nc2ccc3c(c2)CC2(C(=O)N(C)C(=O)N(C)C2=O)C2CCCN32)c1 (stereo not given) | inconclusive: 6.57 µM [inhibitor, partial curve]
62 | O=C(Cc1cccs1)NCc1ccc2c(c1)OCO2 | inactive
63 | Cc1ccc(Cn2c(CN(C)Cc3ccccc3)nc3c2c(=O)n(C)c(=O)n3C)cc1 | inconclusive: 13.1 µM [inhibitor, single point]
64 | CC(=O)O[C@H]1C(=O)[C@@]2(C)C([C@H](OC(=O)c3ccccc3)[C@]3(O)C[C@H](OC(=O)[C@H](O)[C@@H](NC(=O)Cc4ccccc4)c4ccccc4)C(C)=C1C3(C)C)[C@]1(OC(C)=O)CO[C@@H]1C[C@@H]2O (stereo not given in full) | active: 3.7 µM
65 | CC(NS(=O)(=O)c1ccc(Br)cc1)c1ccccc1 (stereo not given) | inactive
66 | O=C(NCCSCc1ccccc1)c1ccc(F)cc1 | inconclusive: 16.5 µM [inhibitor, partial curve, poor fit]
67 | CC(C)c1nc2cc(C(=O)N3CCNC(=O)C3c3cccc(F)c3)ccc2o1 (stereo not given) | inactive
68 | CC[C@H](C)C(=O)O[C@H]1C[C@@H](C)C=C2C=C[C@H](C)[C@H](CC[C@@H]3C[C@@H](O)CC(=O)O3)[C@H]21 | inconclusive: 13.1 µM [inhibitor, single point]
69 | Cc1cc(C)nc(NS(=O)(=O)c2ccc(NC(=O)c3ccco3)cc2)n1 | inactive
70 | S=C1NCN(Cc2ccco2)CN1c1cccc2ccccc12 | inconclusive: 11.7 µM [inhibitor, partial curve, poor fit]
